Reference: publication PMC4336329 (PLoS ONE, 2015)
Hit rate of the full screen: of about 310,000 compounds, about 14,000 (4.5%) showed an effect of 50% or more. Effects have a minus sign here. This is one part of the list.

Target: human ether-à-go-go-related gene (hERG) potassium channel (human, UniProt Q12809)
Assay: primary screen, population patch clamp on CHO cells stably expressing hERG
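Note: peak tail current of the secondary pulse compared with the same well before compound.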

human ether-à-go-go-related gene (hERG) potassium channel, sequence (Q12809 whole entry, looked up): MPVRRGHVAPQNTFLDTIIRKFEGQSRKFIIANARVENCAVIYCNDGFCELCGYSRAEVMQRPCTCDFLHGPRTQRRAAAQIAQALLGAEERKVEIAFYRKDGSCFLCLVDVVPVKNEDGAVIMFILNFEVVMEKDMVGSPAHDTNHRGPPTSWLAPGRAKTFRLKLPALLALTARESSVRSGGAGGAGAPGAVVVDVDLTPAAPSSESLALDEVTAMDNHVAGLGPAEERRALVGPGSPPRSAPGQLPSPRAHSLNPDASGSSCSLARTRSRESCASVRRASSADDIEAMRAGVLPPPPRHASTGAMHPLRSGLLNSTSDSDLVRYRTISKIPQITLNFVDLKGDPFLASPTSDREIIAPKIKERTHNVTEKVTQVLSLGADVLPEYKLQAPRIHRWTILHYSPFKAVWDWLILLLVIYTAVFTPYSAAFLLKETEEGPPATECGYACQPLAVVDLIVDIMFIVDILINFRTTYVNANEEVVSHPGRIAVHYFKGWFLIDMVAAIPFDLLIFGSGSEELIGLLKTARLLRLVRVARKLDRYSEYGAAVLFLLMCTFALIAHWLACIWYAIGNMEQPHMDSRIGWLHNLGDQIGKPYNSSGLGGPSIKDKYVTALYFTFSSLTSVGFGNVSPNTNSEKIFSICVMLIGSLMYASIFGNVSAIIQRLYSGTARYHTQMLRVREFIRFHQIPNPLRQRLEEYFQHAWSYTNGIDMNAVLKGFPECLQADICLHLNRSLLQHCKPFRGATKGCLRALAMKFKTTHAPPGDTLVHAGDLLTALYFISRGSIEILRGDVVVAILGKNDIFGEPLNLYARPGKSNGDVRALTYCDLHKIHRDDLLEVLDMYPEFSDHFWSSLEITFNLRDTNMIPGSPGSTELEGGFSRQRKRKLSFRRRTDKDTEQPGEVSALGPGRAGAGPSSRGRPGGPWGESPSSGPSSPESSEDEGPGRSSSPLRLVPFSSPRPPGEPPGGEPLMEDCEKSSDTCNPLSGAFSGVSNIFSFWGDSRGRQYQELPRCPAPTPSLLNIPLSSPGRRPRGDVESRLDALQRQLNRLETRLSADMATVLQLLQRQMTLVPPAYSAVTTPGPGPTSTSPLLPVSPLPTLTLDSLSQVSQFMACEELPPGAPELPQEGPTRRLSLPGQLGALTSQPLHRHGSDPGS

Structure (SMILES)	hERG current change (%, negative = inhibition) at 10uM [%]
O=S(=O)(c1cccc(COc2c(Cl)cccc2Cl)c1)N1CCOCC1	-12
COc1ccccc1C(=O)Nc1ccnn1C1CCN(C2CCSCC2)CC1	-70.9
O=[N+]([O-])c1cc(-c2csc(NC(CO)c3nc4ccccc4n3CCOCCO)n2)ccc1Cl (stereo not drawn)	-8.63
CCCC[C@H]1COCCS(=O)(=O)N1Cc1ccc(C)cc1	9.87
COc1cc(/C=N/N2CCN(c3ccc(Cl)cc3)CC2)cc(OC)c1OC(C)=O	9.63
CCCOC(=O)CSC1=C(C#N)C(c2ccc3c(c2)OCO3)CC(=O)N1 (stereo not drawn)	-1.72
COc1ccc(CNC(=O)C2=CC(c3ccc(C)cc3)=NS(=O)(=O)N2C)cc1	-9.69
COc1ccccc1OP(=O)(Nc1ccc(Br)cc1)Oc1ccccc1OC	16.3
CC1CC(C)CN(S(=O)(=O)c2ccc(C(=O)NCc3ccco3)cc2)C1 (stereo not drawn)	-13.3
COc1cc(CN(C2CCCCC2)S(=O)(=O)c2ccc(S(=O)(=O)N(C)C3CCCCC3)cc2)cc(OC)c1OC	-3.47
O=C(NCc1ccccn1)C1CCCN(S(=O)(=O)c2ccc(Br)cc2)C1 (stereo not drawn)	-26.6
C/C(CC(C)(C)C1CCCCC1)=N\NC(N)=S	14.6
C=C[C@@H]1c2c(F)cccc2N(S(=O)(=O)c2ccc(C)cc2)[C@H](c2ccc(C(=O)OC)cc2)C1(C#N)C#N	24.9
Cc1cc(C)cc(NC(=O)C2CCC(CNC(=O)[C@@H]3Cc4ccccc4CN3)CC2)c1 (stereo partly drawn)	0.322
O=C(Cc1ccccc1)Nc1ccc(F)cc1	22.3
COc1ccc(CCN(C)C(=O)c2cc(S(=O)(=O)NCc3ccccc3)ccc2C)cc1OC	-31.1
COc1ccc(C(Nc2ccccc2)P(=O)(Oc2ccccc2)Oc2ccccc2)cc1 (stereo not drawn)	15.2
CN(C)C(=O)c1ccc(OCC(F)(F)F)nc1	12.2
O=C(c1ccc(F)cc1)N1CCC(C(=O)N2CCN(S(=O)(=O)c3cccc(Cl)c3)CC2)CC1	-44.6
Nc1nc2ccccc2n1CCOc1ccc(Cl)cc1	-51.1
COc1cccc(OCC(=O)NN=C2c3ccccc3-c3ccccc32)c1	-5.77

Structure (SMILES)	hERG current change (%, negative = inhibition) at 10uM [%]
O=c1cc(CSc2ccc(Cl)cc2)nc(-c2ccccc2)[nH]1	-59.7
CC(CCN1C(Nc2ccccc2)=NC[C@@H]1Cc1ccccc1)c1ccccc1 (stereo partly drawn)	-74.8
CCOC(=O)/C(=N\Nc1ncnc2ccccc12)c1ccc(C)cc1	-39.1
Cc1cc(C)cc(-n2c(SCC(=O)NCc3ccc4c(c3)OCO4)nc3ccccc3c2=O)c1	15.9
COc1ccc(NS(=O)(=O)c2ccc(C(=O)N3CCN(Cc4ccccc4)CC3)cc2)cc1	-17.1
Cc1nnsc1S(=O)c1ccccc1Cl (stereo not drawn)	22.6
CCc1cccc(NC(=O)CCS(=O)(=O)c2cccc3nonc23)c1	-5.55
CC(C)(C)OC(=O)NC(Cc1ccccc1)C(=O)O (stereo not drawn)	-50.5
CCOc1ccccc1-n1c(SCC(N)=O)nnc1-c1cccnc1	6.88
CC(C)Oc1ccc(N2CC(C(=O)Nc3ccc(N4CCOCC4)cc3)CC2=O)cc1 (stereo not drawn)	22.6
O=C(NC(=O)c1ccccc1)OCC1CCCN2CCCCC12 (stereo not drawn)	-56.7
COc1cc(/C=N/O)cc(Cl)c1OC	4.03
COCCCNC(=O)C1CCN(S(=O)(=O)c2ccc3nc4c(c(C(=O)O)c3c2)CCCCC4)CC1	4.15
CCN(Cc1ccccc1)C(=O)CCc1nc(-c2ccc(C)cc2)no1	-12.1
COc1cccc(-c2nn(-c3ccccc3)cc2C(=O)n2nnc3ccccc32)c1	-3.31
CN1C(=O)CSc2ccc(NC(=O)NCc3ccccc3)cc21	0.201
C=CCOc1c(CNc2ccc(S(N)(=O)=O)cc2)cccc1OC	2.97
O=S(=O)(Nc1nnc(C2CC2)s1)c1ccccc1	-8.13
Cc1ccc(N(C)S(=O)(=O)c2cccc(C(=O)NCC(c3ccco3)N3CCCC3)c2)cc1 (stereo not drawn)	-62.5
O=[N+]([O-])c1ccc(-c2nn(-c3ccccc3)cc2/C=N/n2c(-c3ccncc3)n[nH]c2=S)cc1	19.4
CN1CCN(S(=O)(=O)c2ccc(NC(=O)c3ccccc3F)cc2)CC1	4.77

Structure (SMILES)	hERG current change (%, negative = inhibition) at 10uM [%]
COc1ccc2cc(C(=O)N/N=C/c3cc(OC)c(OC)c(OC)c3)[nH]c2c1	11.5
CCOC(=O)N1CCN(CC(=O)Nc2ccc(OC)cc2)CC1	-15.2
O=C(Nc1cccc(Oc2c(F)c(F)c(F)c(F)c2F)c1)N1C[C@@H]2C[C@@H](C1)c1cccc(=O)n1C2	-44.8
Cc1ccc(N2C(=O)NC(=O)/C(=C\c3cc(C)n(-c4sc5c(c4C#N)CCCC5)c3C)C2=O)cc1	-4.39
COC(=O)c1ccc(NC(=O)Nc2ccc(F)cc2)cc1	-6.29
CS(=O)(=O)c1ccc(C(=O)OCC(=O)Nc2cccc(S(=O)(=O)N3CCCC3)c2)cc1	-26.1
Cc1cc(/C=C2/SC(=S)N(c3cccc(C(F)(F)F)c3)C2=O)c(C)n1-c1cccnc1	7.45
CCn1cc(C2CC(=O)NC2=O)c2ccccc21 (stereo not drawn)	9.51
O=C(COC(=O)c1ccccc1NC(=O)c1ccccc1)c1ccc([N+](=O)[O-])cc1	-5.91
COc1ccc(NC(=S)N2CCN(S(C)(=O)=O)CC2)cc1	9.62
Oc1c(C(c2ccc(F)cc2)N2CCc3ccccc3C2)sc2ncnn12 (stereo not drawn)	-2.64
CCOC(=O)c1ncn2c1[C@@H]1CCNC1C(=O)c1cc(OC)ccc1-2 (stereo partly drawn)	-68.4
COc1ccc(-c2cc(C(F)F)n3ncc(C(=O)N4CCCCC4)c3n2)cc1	-26.4
Cc1nc(N2CCN(S(=O)(=O)c3ccccc3C#N)CC2)c2c(-c3cccs3)csc2n1	-3.58
CCCCCCCNC(=O)C1CC(=O)N(C)C(=Nc2ccc(OC)cc2)S1 (stereo not drawn)	4.5
O=C(CSc1nc2ccc(NC(=O)c3ccccc3C(=O)O)cc2s1)Nc1c(Cl)cccc1Cl	16.8
Cc1ccc(CN2CCN(C(=O)c3cccc4ccccc34)CC2)cc1.O=C(O)C(=O)O	2.56
CCOc1cc(/C=N/NC(=O)c2ccc(CN3CCOCC3)cc2)ccc1OC	-19.1
COc1cccc(NC(=O)c2ccccc2NS(C)(=O)=O)c1	-13.8
O=C(Cn1nc(-c2ccccc2)c2ccccc2c1=O)Nc1cccc(O)c1	15.9
Cc1nc2ncnn2c(C)c1C/C=C/c1ccccc1	-15.3

Structure (SMILES)	hERG current change (%, negative = inhibition) at 10uM [%]
O=C(CN1C(=O)NC2(CCCCC2)C1=O)Nc1nc2c(F)cc(F)cc2s1	5.66
COc1ccc(C(=O)NC(=S)Nc2cc3oc4ccccc4c3cc2OC)cc1	3.87
CN(C)C(=O)Oc1cc(OC(=O)N(C)C)cc(C(O)CNC(C)(C)C)c1 (stereo not drawn)	14.8
Cn1c(-c2sccc2OCc2ccc(Cl)cc2Cl)n[nH]c1=S	-12.8
Cc1ccc(C(=O)NCN2CCN(c3ccc(F)cc3)CC2)cc1	-28.9
N=c1c(C(=O)NC2CCCCC2)cc2c(=O)n3ccccc3nc2n1Cc1ccc(F)cc1	-77
CCN(CC)S(=O)(=O)c1cccc(N=Nc2c(O)c3ccccc3oc2=O)c1	1.63
COc1ccc(Cl)cc1NC(=O)CN(C)C(=O)CNC(=O)C12CC3CC(CC(C3)C1)C2	-16.3
OCC1(Cc2ccc(Cl)cc2)CCN(CCCc2ccccc2)CC1	-83.9
O=S(=O)(c1ccc(F)cc1)N1CCCc2ccccc21	-9.32
O=C(c1cccc(-n2cnnn2)c1)N1CC=C(c2ccccc2)CC1	-37.8
CC(C)(C)NC(=O)C(=O)NNC(=O)c1cccc(Br)c1	-0.74
Cc1cc(=O)oc(C)c1C(=O)NC12CC3CC(CC(C3)C1)C2	-2.85
CCCCOc1ccc(Cl)cc1CSc1nnc(CC)n1N	-9.66
O=C(NCc1cccc(Cl)c1)C1CCCN(c2ncnc3c2nc2n3CCCCC2)C1 (stereo not drawn)	-73.5
Clc1ccc2nc(CSc3nnc4ccccn34)cn2c1	-16
Cc1nnc(N/N=C/C(C)c2ccccc2)[nH]c1=O (stereo not drawn)	5.89
CCn1c(COc2ccc3c(c2)CCCC3)nnc1SCC(=O)Nc1nccs1	-4.08
CCOC(=O)C1(C)Oc2ccc(S(=O)(=O)CC)cc2NC1=O (stereo not drawn)	-0.937
COc1cccc(NC(=O)CN2CCC(C)CC2)c1	1.52
COc1ccc(C(=O)N2CCN(C(=O)c3ccco3)CC2)cc1OC	-9.09
